According to patent US11673947B2, “Target tissue-specific antigen-binding molecule” (Chugai Seiyaku Kabushiki Kaisha, priority 2012, dated 2023):

Target: T1, IL-6R (Homo sapiens, UniProt P08887)
T1 sequence (P08887 20-357 limits assumed): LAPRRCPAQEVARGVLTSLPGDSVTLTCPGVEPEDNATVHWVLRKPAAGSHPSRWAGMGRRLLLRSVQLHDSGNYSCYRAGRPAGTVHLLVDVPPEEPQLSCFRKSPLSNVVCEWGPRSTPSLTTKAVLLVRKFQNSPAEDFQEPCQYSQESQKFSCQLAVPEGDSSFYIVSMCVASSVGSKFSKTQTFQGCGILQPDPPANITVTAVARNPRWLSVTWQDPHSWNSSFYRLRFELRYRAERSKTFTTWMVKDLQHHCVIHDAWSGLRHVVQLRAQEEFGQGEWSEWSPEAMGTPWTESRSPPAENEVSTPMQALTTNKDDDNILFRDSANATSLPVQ
Test: Biacore T200, binding of ATP/adenosine-dependent antibodies to IL-6R with ATP, ADP, AMP, cAMP or adenosine
Conditions: 1 mM ATP; IL-6R immobilized on sensor chip CM5, antibody as analyte; 25° C., pH 7.4; from plot of equilibrium value against antibody concentration; read-out: Dissociation constant KD
Description: Biacore T200 (GE Healthcare) was used to evaluate the effect of various small molecules on the antigen-antibody reaction of IL-6R with 9 ATP/adenosine-dependent antibodies (6RAD2C1-4_001, 6RAD2C1-4_005, 6RAD2C1-4_011, 6RAD2C1-4_026, 6RAD2C1-4_030, 6RAD2C1-4_042, 6RAD2C1-4_076, 6RDL3C1-4_085, and 6RDL3C5-4_011) obtained from the library. The running buffer was used: 20 mmol/1 ACES, 150 mmol/l NaCl, 0.05% (w/v) Tween20, pH 7.4. Assay was carried out at 25° C. IL-6R was immobilized onto sensor chip CM5 by amine coupling; and the antibodies were allowed to interact as analyte for 120 seconds, and changes in the amount of binding were observed. For dilution of the antibodies, the running buffer or the running buffer containing any one of ATP, ADP, AMP, cAMP, and adenosine (ADO) were used. The final concentration of each small molecule and the final concentration of each antibody were adjusted to 1 mM and 1 μM, respectively. Meanwhile, under the 1 mM ATP condition, assay was carried out with a series of stepwise antibody concentrations. The dissociation constant KD (mol/L) of each clone for IL-6R was calculated from a plot of equilibrium value against antibody concentration. The parameters were calculated using the Biacore T200 Evaluation Software (GE Healthcare).

B1: 6RAD2C1-4_42 (antibody)
heavy: EVQLVESGGDLVKPGGGLRLSCAASGFTFSSYTMNWVRQAPGKGLEWVSSISSRSSYASYADSVKGRFTISRDNAKNSLYLQMNSLRAEDTAVYYCARYGRLNSHNWVFDYWGQGTLVTVSS[human IgG1 constant region not written out]
light: QSALTQPPSASGSPGQTVTISCTGTSTDVGFYNYVSWYQQHPGKAPKLMIYQGSKKPSGVPDRFSGSKSGNTASLTVSGLQAEDEADYFCSTRATTKGVLFGGGTKLTVLRTVAAPSVFIFPPSDEQLKSGTASVVCLLNNFYPREAKVQWKVDNALQSGNSQESVTEQDSKDSTYSLSSTLTLSKADYEKHKVYACEVTHQGLSSPVTKSFNRGEC
Kd: 250 nM

B2: 6RDL3C5-4_11 (antibody)
heavy: EVQLVESGGDLVKPGGGLRLSCAASGFTFSSHTMNWVRQAPGKGLEWVSSISSRSGYIFYADSVKGRFTISRDNAKNSLYLQMNSLRAEDTAVYYCARFGKLNHMNWVFDYWGQGTLVTVSS[human IgG1 constant region not written out]
light: QSALTQPPSASGSPGQTVTISCTGTSTDVGTYNYVSWYQQHPGKAPKLMIYQVSKRPSGVPDRFSGSKSGNTASLTVSGLQAEDEADYFCSTRAITRGVAFGGGTKLTVLRTVAAPSVFIFPPSDEQLKSGTASVVCLLNNFYPREAKVQWKVDNALQSGNSQESVTEQDSKDSTYSLSSTLTLSKADYEKHKVYACEVTHQGLSSPVTKSFNRGEC
Kd: 130 nM
